Results from the supplement of paper PMC3334620.
In all, about 33,000 sequences were measured (“E-score (-0.5 to 0.5)”: median about -0.021, highest 2% from about 0.32 on). The list shows a part of the results.

What follows are sequences tested against T1, Zap1 (UniProt P47043) (assay: PBM E-score (8-mer binding enrichment) (E-score (-0.5 to 0.5)); higher = stronger / more preferred TF binding; most listed sequences are background and not binding sites). Details: protein concentration: 200 nM; construct: GST-full length.
T1 sequence: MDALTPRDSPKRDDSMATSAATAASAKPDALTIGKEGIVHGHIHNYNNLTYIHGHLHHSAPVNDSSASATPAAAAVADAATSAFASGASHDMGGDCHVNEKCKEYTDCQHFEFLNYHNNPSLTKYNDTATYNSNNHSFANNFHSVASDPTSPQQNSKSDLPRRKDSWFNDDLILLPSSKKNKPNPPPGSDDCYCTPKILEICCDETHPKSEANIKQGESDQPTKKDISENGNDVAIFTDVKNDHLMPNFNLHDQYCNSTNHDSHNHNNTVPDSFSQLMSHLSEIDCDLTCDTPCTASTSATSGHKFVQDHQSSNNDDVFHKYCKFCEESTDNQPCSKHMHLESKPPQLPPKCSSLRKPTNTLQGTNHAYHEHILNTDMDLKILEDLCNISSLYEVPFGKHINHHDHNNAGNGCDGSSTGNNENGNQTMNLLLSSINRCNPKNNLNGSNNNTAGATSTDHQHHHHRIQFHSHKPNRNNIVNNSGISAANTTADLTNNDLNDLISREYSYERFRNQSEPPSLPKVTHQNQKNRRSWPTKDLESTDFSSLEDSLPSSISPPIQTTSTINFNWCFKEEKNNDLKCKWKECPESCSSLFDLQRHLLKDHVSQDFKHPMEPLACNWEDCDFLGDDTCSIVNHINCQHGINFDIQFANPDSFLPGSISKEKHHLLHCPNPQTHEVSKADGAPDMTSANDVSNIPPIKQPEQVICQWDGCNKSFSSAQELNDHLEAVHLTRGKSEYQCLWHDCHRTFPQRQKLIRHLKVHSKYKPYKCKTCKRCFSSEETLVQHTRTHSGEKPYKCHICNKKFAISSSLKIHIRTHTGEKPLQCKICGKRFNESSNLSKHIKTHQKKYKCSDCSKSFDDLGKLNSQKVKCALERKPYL
Procedure, shortened: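 E-scores (a modified Wilcoxon-Mann-Whitney statistic) were assigned by the Universal PBM Analysis Suite to every ungapped eight-base word pooled with its reverse complement. The input came from universal all-10-mer Agilent arrays made double-stranded by primer extension and probed with GST-tagged yeast transcription factors at about 100-200 nM. Fluorescent anti-GST detected bound protein, and masliner normalised the scans.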

Sequence	PBM E-score
ACGCGAGG	-0.0471
AAGCGGTA	0.131
CCTCTATC	0.0148
ATCTTGTG	-0.0123
AAGGAAGT	-0.0403
CATAACCG	0.395
CCCCGGCC	0.0756
ATCCTCAG	0.0333
CGCCTCGA	0.0277
AACAAAGC	0.265
CCCCTACA	-0.0402
ACGCAAAA	-0.024
AGTTTCAT	0.173
GCAGCATA	-0.183
TACATTCA	0.00564
CCACCGCA	-0.0132
TACAGACA	0.064
TGACGACA	0.179
CCCGCGCA	0.012
CCTTCCGA	-0.0228
GGTTTTAC	0.108
AACGGTAG	0.104
GCACTGGC	-0.308
ATGCTTAC	-0.056
CTTCGAAG	-0.0416

Sequence	PBM E-score
GATCGTGC	0.0153
CACCAGAC	0.0613
GAAAAGCA	-0.0572
CCGCCGCC	-0.0211
GCAAGCAA	-0.0664
AATTGGAG	-0.209
CAAATTTA	0.133
CATGCGAC	0.014
GAGCACAA	-0.0419
ACTCGTCC	-0.194
CGCGCGGC	0.0968
CAAAAAGC	0.0524
ATCTTAAC	0.142
ATTGTCCA	0.166
AGGTTTAG	-0.0455
AACAATTC	-0.109
TATCCCGA	-0.0721
CAGGTCTC	-0.00381
CTATTAAA	0.0946
AATTAGTG	0.161
CCTGGCAC	-0.197
GAATCCCA	-0.0505
TCGTTCAA	0.164
AGTATAAC	0.22
CGGAGTCA	-0.108

Sequence	PBM E-score
CAGGGCCG	-0.0379
ATTGCTGC	-0.105
CAACCCTC	0.258
CCCGGCTA	-0.252
GGTTAACA	0.32
ACCTTAGA	0.221
AGAAGCTG	-0.059
ACAGATTA	-0.124
AGGATGCC	-0.281
AGTAGAAC	-0.0178
GGATCTTA	0.0936
ATCATAAC	0.296
CTAGAAGC	-0.191
CCAGTAGA	-0.0348
AGCATTCG	-0.286
ACTCCTAG	-0.214
ATGACACC	0.00969
TCGGAACA	0.0868
GGGGCTGA	-0.25
GAGCGTCC	-0.134
AATGGACG	0.141
AGAGTCGC	-0.145
ATTTAACG	0.023
AATGTTGG	0.0653
GAAACCGC	0.15

Sequence	PBM E-score
AAGGGCCT	0.141
CGTAGCCC	-0.102
GCACTACA	-0.146
ATCGATTA	0.115
CCAATGCC	-0.211
ACGTATCT	-0.336
CACTGGGA	-0.062
TAGTTCCA	0.0983
AATATCTG	-0.0386
AGGGGGGA	-0.43
AATGGTGC	0.0377
ATTCTTCA	0.133
GACTGATA	-0.187
CGGTACAC	0.0303
ACTAACGC	-0.0302
AACAAGAC	0.113
AGCTCCGC	-0.146
CTGATGTC	-0.0263
ACTGAACC	0.0526
AACGGCGA	0.0503
GGGCATCA	-0.177
AAGGTGTC	0.0843
ACGGTAGT	0.256
CGCAGGAG	-0.0415
AATAGGGG	0.0477

Sequence	PBM E-score
GCCCACAC	-0.102
ATTAGGGA	-0.02
AAACGCTG	-0.173
CTATGCTC	-0.174
CATACTTC	-0.108
CTTCCTTC	-0.293
AGAAAGAT	-0.0628
TGCGGCAA	-0.0438
GTAACCAC	0.431
GCTGGCTA	-0.211
CCAGCGGG	0.0224
AAAACACG	0.102
ATATGTAG	-0.0332
ATGCAGAA	0.0715
AGCTTAAC	-0.0482
AGTTTTCC	-0.0453
GCAGTAAA	0.104
ATATCATG	0.0109
CCTTCTAA	0.0042
CGAATACA	-0.12
ATGTGCAG	-0.142
CCTAGGGC	-0.041
CATGAATG	-0.156
ATTATTAC	0.21
CTGGACGA	-0.253

Sequence	PBM E-score
CGTGGGCC	-0.0526
AGCAAAAT	-0.0135
AAAACGGC	-0.0578
CGGAACAA	0.0784
AGTCGGTC	-0.238
AATGTTAC	0.0925
CGGTCTTA	-0.00835
AGCTTCTC	-0.261
GAACTTAC	-0.0266
CACATACC	0.096
GGTGGCGA	-0.0704
CGGACAAA	0.0366
GTCACGAA	0.14
CGATGTGA	-0.135
ATACCTGG	-0.129
CAGTGAGA	-0.0523
GACAAGAC	0.11
CGCTTTTC	-0.082
TCCAAACA	-0.00427
CGAAGACG	-0.253
AACGTTGT	-0.0704
CTTTTACC	0.0877
CTCTGGCA	-0.0979
AATCAGCC	-0.25
TTCTTCAA	0.0925

Sequence	PBM E-score
CTGTTGTC	-0.166
TAAGATAA	0.189
ATCTTGAA	0.191
ACAGGGTC	0.315
AGGGTACA	0.337
CGTCTTAA	0.05
GTTTATGA	0.0316
ATGAACCA	0.202
ATCAGCAT	-0.07
AAGTGGGC	-0.0497
ACGAGGAG	-0.129
AAAAGTTT	0.183
CCCTACGA	0.0771
CGACCTCA	0.081
CATGTGTC	-0.0208
CCCAGAGA	-0.177
ACCATACC	0.0927
AATATACC	0.217
ACTCCTAC	-0.0776
AGACTCGG	-0.391
CTGCCCAC	-0.244
GCATAAGC	-0.0977
